This is an account of results in US20220009991A1 (SILVER CREEK PHARMACEUTICALS, published 2022).

The target in this experiment is IGF-1 receptor (UniProt P08069 31-1367). Nature of the experiment: cell-based or functional assay.
UniProt P08069, sequence (P08069 31-1367): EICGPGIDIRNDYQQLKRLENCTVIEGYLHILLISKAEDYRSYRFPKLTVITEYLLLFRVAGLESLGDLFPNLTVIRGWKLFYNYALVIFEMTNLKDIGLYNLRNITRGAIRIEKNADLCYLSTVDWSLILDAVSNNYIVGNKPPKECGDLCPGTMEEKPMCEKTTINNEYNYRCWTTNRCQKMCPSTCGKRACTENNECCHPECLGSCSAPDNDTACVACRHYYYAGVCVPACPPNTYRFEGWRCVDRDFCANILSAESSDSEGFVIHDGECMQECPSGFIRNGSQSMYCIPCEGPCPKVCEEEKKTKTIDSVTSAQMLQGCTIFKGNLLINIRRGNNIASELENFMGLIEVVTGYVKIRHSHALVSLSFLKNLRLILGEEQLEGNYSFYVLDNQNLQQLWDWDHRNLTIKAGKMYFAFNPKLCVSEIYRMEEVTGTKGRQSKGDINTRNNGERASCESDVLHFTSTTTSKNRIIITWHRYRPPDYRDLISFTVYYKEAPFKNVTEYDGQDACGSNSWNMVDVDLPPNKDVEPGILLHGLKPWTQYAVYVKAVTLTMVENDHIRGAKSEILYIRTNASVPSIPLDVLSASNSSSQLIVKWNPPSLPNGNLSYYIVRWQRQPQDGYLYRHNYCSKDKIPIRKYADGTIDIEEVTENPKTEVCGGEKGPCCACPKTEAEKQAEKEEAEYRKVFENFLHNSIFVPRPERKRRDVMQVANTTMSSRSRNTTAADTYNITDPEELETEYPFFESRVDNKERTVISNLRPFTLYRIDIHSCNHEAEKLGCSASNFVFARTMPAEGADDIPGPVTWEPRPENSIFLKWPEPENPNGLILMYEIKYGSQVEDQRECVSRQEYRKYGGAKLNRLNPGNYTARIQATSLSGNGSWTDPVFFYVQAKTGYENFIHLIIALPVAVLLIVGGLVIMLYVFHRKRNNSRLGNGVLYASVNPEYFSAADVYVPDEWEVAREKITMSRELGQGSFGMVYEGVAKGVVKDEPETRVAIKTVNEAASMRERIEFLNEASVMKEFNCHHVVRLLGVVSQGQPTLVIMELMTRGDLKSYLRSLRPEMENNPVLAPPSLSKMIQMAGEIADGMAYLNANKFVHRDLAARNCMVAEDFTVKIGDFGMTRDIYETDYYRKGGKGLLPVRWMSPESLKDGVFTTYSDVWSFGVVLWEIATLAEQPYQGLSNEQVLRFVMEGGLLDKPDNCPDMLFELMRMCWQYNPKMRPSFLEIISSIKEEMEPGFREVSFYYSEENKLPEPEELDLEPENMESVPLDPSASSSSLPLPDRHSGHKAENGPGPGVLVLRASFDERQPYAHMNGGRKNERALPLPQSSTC

B1: SGF 731 (other)
chain: MFPAMPLSSLFVNGPRTLCGAELVDALQFVCGDRGFLFNKPTGAGSSSRRAPQTGIVDECCFRSCDLRRLEMYCAPLKPAKSAGSGGSGGGSGGSGGGDAHKSEVAHRFKDLGEENFKALVLIAFAQYLQQSPFEDHVKLVNEVTEFAKTCVADESAENCDKSLHTLFGDKLCTVATLRETYGEMADCCAKQEPERNECFLQHKDDNPNLPRLVRPEVDVMCTAFHDNEETFLKKYLYEIARRHPYFYAPELLFFAKRYKAAFTECCQAADKAACLLPKLDELR[sequence of about 200 residues not given]NLIKQNCELFEQLGEYKFQNALLVRYTKKVPQVSTPTLVEVSRNLGKVGSKCCKHPEAKRMPCAEDYLSVVLNQLCVLHEKTPVSDRVTKCCTESLVNRRPCFSALEVDETYVPKEFQAGTFTFHADICTLSEKERQIKKQTALVELVKHKPKATKEQLKAAMDDFAAFVEKCCKADDKETCFAEEGKKLVAASQAALGLGSGGSGGGSGGSGGGAQVLRGTVTDFPGFDERADAETLRKAMKGLGTDEESILTLLTSRSNAQRQEISAAFKTLFGADLLDDLASELTGKFEKLIVALMKPSRLYDAYELKHALAGAGTNEKVLTEIIASRTPEELRAIKQVYEEEYGSSLAGDVVGDTSGYYQRMLVVLLQAARDPDAGIDEAQVEQDAQALFQAGELKWGTDEEKFITIFGTRSVSHLRKVFDKYMTISGFQIEETIDRETSGNLEQLLLAVVKSIRSIPAYLAETLYYAMKGAGTDDHTLIRVMVSRSEIDLFNIRKEFRKNFATSLYSMIKGDTSGDYKKALLLLCGEDD
On to B1, for which the “potency reduction (pAKT EC50fusion/EC50wt IGF1), iPSC-derived cardiomyocytes” value (shortened to “potency reduction”) was not below 6 fold.

B2: SGF 704 (other)
chain: MFPAMPLSSLFVN[sequence of about 80 residues not given]GSGGSGGGSGGSGGGDAHKSEVAHRFKDLGEENFKALVLIAFAQYLQQSPFEDHVKLVNEVTEFAKTCVADESAENCDKSLHTLFGDKLCTVATLRETYGEMADCCAKQEPERNECFLQHKDDNPNLPRLVRPEVDVMCTAFHDNEETFLKKYLYEIARRHPYFYAPELLFFAKRYKAAFTECCQAADKAACLLPKLDELR[sequence of about 200 residues not given]NLIKQNCELFEQLGEYKFQNALLVRYTKKVPQVSTPTLVEVSRNLGKVGSKCCKHPEAKRMPCAEDYLSVVLNQLCVLHEKTPVSDRVTKCCTESLVNRRPCFSALEVDETYVPKEFQAGTFTFHADICTLSEKERQIKKQTALVELVKHKPKATKEQLKAAMDDFAAFVEKCCKADDKETCFAEEGKKLVAASQAALGL
With B2, the “potency reduction” value is not below 6 fold.

B3: SGF 688 (Fc fusion)
chain: MFPAMPLSSLFVNGPRTLCGAELVDALQFVCGDRGFYFNKPTGYGSSSRAPQTGIVDECCFRSCDLRRLEMYCAPLKPAGSGGSGGGSGGGSGGGSGGGSGGGSGGGSGGGSGGGSGGG[sequence of human IgG1 Fc with changes not given]
As for B3, the “potency reduction” value was not above 2 fold.

B4: SGF 730 (other)
chain: MFPAMPLSSLFVNGPRTLCGAELVDALQFVCGDRGFYFNKPTGYGSSSRAPQTGIVDECCFRSCDLRRLEMYCAPLKPAGSGGSGGGSGGSGGGDAHKSEVAHRFKDLGEENFKALVLIAFAQYLQQSPFEDHVKLVNEVTEFAKTCVADESAENCDKSLHTLFGDKLCTVATLRETYGEMADCCAKQEPERNECFLQHKDDNPNLPRLVRPEVDVMCTAFHDNEETFLKKYLYEIARRHPYFYAPELLFFAKRYKAAFTECCQAADKAACLLPKLDELR[sequence of about 200 residues not given]NLIKQNCELFEQLGEYKFQNALLVRYTKKVPQVSTPTLVEVSRNLGKVGSKCCKHPEAKRMPCAEDYLSVVLNQLCVLHEKTPVSDRVTKCCTESLVNRRPCFSALEVDETYVPKEFQAGTFTFHADICTLSEKERQIKKQTALVELVKHKPKATKEQLKAAMDDFAAFVEKCCKADDKETCFAEEGKKLVAASQAALGLGSGGSGGGSGGSGGGAQVLRGTVTDFPGFDERADAETLRKAMKGLGTDEESILTLLTSRSNAQRQEISAAFKTLFGADLLDDLASELTGKFEKLIVALMKPSRLYDAYELKHALAGAGTNEKVLTEIIASRTPEELRAIKQVYEEEYGSSLAGDVVGDTSGYYQRMLVVLLQAARDPDAGIDEAQVEQDAQALFQAGELKWGTDEEKFITIFGTRSVSHLRKVFDKYMTISGFQIEETIDRETSGNLEQLLLAVVKSIRSIPAYLAETLYYAMKGAGTDDHTLIRVMVSRSEIDLFNIRKEFRKNFATSLYSMIKGDTSGDYKKALLLLCGEDD
B4: the “potency reduction” value was not below 6 fold.

B5: SGF 649 (Fc fusion)
chain: MFPAMPLSSLFVN[sequence of about 80 residues not given]GSGGSGGGSGGGSGGGSGGGSGGGSGGGSGGGSGGGSGGG[sequence of human IgG1 Fc with changes not given]SGGSGGGSGGGSGGGSGGGSGGGSGGGSGGGSGGGSGGGAQVLRGTVTDFPGFDERADAETLRKAMKGLGTDEESILTLLTSRSNAQRQEISAAFKTLFGRDLLDDLKSELTGKFEKLIVALMKPSRLYDAYELKHALKGAGTNEKVLTEIIASRTPEELRAIKQVYEEEYGSSLEDDVVGDTSGYYQRMLVVLLQANRDPDAGIDEAQVEQDAQALFQAGELKWGTDEEKFITIFGTRSVSHLRKVFDKYMTISGFQIEETIDRETSGNLEQLLLAVVKSIRSIPAYLAETLYYAMKGAGTDDHTLIRVMVSRSEIDLFNIRKEFRKNFATSLYSMIKGDTSGDYKKALLLLSGEDD
In the case of B5, the “potency reduction” value was not above 2 fold.

B6: SGF 683 (Fc fusion)
chain: MFPAMPLSSLFVNGPRTLCGAELVDALQFVCGDRGFYFNKPTGYGSSSRAPQTGIVDECCFRSCDLRRLEMYCAPLKPAGSGGSGGGSGGGSGGGSGGGSGGGSGGGSGGGSGGGSGGG[sequence of human IgG1 Fc with changes not given]SGGSGGGSGGGSGGGSGGGSGGGSGGGSGGGSGGGSGGGAQVLRGTVTDFPGFDERADAETLRKAMKGLGTDEESILTLLTSRSNAQRQEISAAFKTLFGRDLLDDLKSELTGKFEKLIVALMKPSRLYDAYELKHALKGAGTNEKVLTEIIASRTPEELRAIKQVYEEEYGSSLEDDVVGDTSGYYQRMLVVLLQANRDPDAGIDEAQVEQDAQALFQAGELKWGTDEEKFITIFGTRSVSHLRKVFDKYMTISGFQIEETIDRETSGNLEQLLLAVVKSIRSIPAYLAETLYYAMKGAGTDDHTLIRVMVSRSEIDLFNIRKEFRKNFATSLYSMIKGDTSGDYKKALLLLSGEDDGSGGSGGGSGGGSGGGSGGGSGGGSGGGSGGGSGGGSGSGAQVLRGTVTDFPGFDERADAETLRKAMKGLGTDEESILTLLTSRSNAQRQEISAAFKTLFGRDLLDDLKSELTGKFEKLIVALMKPSRLYDAYELKHALKGAGTNEKVLTEIIASRTPEELRAIKQVYEEEYGSSLEDDVVGDTSGYYQRMLVVLLQANRDPDAGIDEAQVEQDAQALFQAGELKWGTDEEKFITIFGTRSVSHLRKVFDKYMTISGFQIEETIDRETSGNLEQLLLAVVKSIRSIPAYLAETLYYAMKGAGTDDHTLIRVMVSRSEIDLFNIRKEFRKNFATSLYSMIKGDTSGDYKKALLLLSGEDD
In the case of B6, the “potency reduction” value was not below 6 fold.
